Out of some 310,000 compounds screened, about 14,000 (4.5%) showed an effect of 50% or more. The effect is printed as a negative number. The list shows a part of the results.
target: human ether-à-go-go-related gene (hERG) potassium channel (human, UniProt Q12809); test: primary screen, population patch clamp on CHO cells stably expressing hERG
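Also: peak tail current of the secondary pulse compared with the same well before compound.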

human ether-à-go-go-related gene (hERG) potassium channel, sequence (Q12809 whole entry, looked up): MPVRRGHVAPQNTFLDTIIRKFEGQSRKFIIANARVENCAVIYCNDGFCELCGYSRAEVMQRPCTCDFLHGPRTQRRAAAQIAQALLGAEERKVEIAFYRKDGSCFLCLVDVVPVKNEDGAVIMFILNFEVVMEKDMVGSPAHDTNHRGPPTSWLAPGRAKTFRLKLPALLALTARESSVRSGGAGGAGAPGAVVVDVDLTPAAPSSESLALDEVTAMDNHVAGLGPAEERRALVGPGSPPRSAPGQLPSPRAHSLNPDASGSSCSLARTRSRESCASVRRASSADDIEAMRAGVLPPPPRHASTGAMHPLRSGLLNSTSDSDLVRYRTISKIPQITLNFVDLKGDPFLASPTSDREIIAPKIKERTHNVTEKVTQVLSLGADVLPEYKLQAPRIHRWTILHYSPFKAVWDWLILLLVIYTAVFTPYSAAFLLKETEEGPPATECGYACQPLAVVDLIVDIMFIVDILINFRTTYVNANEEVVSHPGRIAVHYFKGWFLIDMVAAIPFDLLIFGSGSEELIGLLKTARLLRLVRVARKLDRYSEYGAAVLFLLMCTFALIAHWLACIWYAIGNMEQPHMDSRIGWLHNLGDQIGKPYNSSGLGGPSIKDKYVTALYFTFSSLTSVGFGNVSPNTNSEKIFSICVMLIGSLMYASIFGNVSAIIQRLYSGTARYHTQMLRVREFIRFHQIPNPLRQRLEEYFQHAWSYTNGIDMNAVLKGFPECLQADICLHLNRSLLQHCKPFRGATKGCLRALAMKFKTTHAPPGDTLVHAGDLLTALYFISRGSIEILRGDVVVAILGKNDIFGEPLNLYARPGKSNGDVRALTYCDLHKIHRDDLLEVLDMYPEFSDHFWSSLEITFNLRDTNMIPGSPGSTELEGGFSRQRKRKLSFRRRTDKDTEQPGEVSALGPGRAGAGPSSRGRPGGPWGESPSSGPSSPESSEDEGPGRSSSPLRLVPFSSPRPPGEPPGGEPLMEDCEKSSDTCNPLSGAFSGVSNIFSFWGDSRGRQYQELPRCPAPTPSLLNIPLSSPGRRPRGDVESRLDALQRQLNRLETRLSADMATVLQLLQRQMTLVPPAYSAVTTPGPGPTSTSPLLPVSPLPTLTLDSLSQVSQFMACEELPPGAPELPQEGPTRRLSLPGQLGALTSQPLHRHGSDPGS

Row | Structure (SMILES) | hERG current change (%, negative = inhibition) at 10uM [%]
1 | O=C(CCS(=O)CCC(=O)NCc1ccccc1)NCc1ccccc1 | 17.7
2 | COc1ccc(NC(=O)NC2(C(=O)N3CCCC(C)C3)CCCCC2)cc1 (stereo not shown) | 16.6
3 | C[C@H](NC(=O)c1nc[nH]c1C(=O)OCc1ccccc1)c1ccccc1 | 10.3
4 | O=C(NCc1cccnc1)c1ccc(COc2ccc(Cl)cc2)cc1 | -58.6
5 | COc1ccc(-c2cc(=O)oc3cc(OCC(=O)NCC(O)c4ccccc4)ccc23)cc1 (stereo not shown) | 2.17
6 | CCC(=NCC1CCCO1)c1c(O)n(Cc2ccccc2)c(=O)[nH]c1=O (stereo not shown) | -46.1
7 | O=C(Cc1ccc(Cl)cc1)NNC(=O)c1cnccn1 | 4.98
8 | CCc1nnc(NC(=O)C2CCCN2S(=O)(=O)c2ccc(C)cc2)s1 (stereo not shown) | 2.98
9 | COc1ccc(Br)cc1C(=O)Nc1ccc(C(=O)NCC(C)C)cc1 | -8.26
10 | N#Cc1c(N)nc2c(c1N)CC(=O)N2c1ccc(Cl)cc1 | 3.95
11 | CCOC(=O)c1[nH]c2ccc(F)cc2c1NC(=O)c1ccccc1C(=O)O | 19.4
12 | COc1cccc(/C=C2/SC(=O)N(CC(=O)N3CCc4ccccc4C3)C2=O)c1OCC(=O)O | 11.8
13 | COC(=O)CN1C(=O)C(C)=C(c2ccc(C)cc2)S1(=O)=O | -3.87
14 | CCC(c1nnnn1Cc1ccco1)N(CCc1ccccc1)Cc1cc2cccc(C)c2[nH]c1=O (stereo not shown) | 11.4
15 | COc1ccc(Nc2ncc(C(=O)N3CCC4(CC3)OCCO4)c3ccccc23)cc1 | -3.86
16 | Cc1ccccc1CC1(CO)CCCN(C(=O)c2ccccc2N(C)C)C1 (stereo not shown) | -1.63
17 | Cc1ccc(C(=O)COC(=O)C2CC(=O)N(c3nc(-c4ccccc4)cs3)C2)cc1 (stereo not shown) | 17.5
18 | CC1CN=C(N(C(=O)Nc2ccccc2)c2ccc(F)cc2)S1 (stereo not shown) | 1.84
19 | COc1ccccc1N1CCN(S(=O)(=O)c2ccc3c(c2)n(C)c(=O)n3C)CC1 | 3.95
20 | c1ccc(-c2nn[nH]n2)cc1 | 13.4
21 | O=c1[nH]c(COc2ccc(Cl)cc2Br)nc2ccccc12 | 1.54
22 | O=C(O)CN1C(=O)/C(=C/c2ccccc2Cl)Oc2ccccc21 | 20.8
23 | COc1ccc(OC)c(S(=O)(=O)N2CCN(C)CC2)c1 | -1.85

Row | Structure (SMILES) | hERG current change (%, negative = inhibition) at 10uM [%]
24 | CCOc1ccc(Cc2nnc(SCC(=O)Nc3ccc(OC)cc3)n(N)c2=O)cc1 | 10.1
25 | O=C(CC1NC(=O)NC1=O)Nc1ccccc1 (stereo not shown) | -0.537
26 | Cc1nc(CNC(=O)CC2C(=O)NCCN2Cc2ccc(F)cc2)cs1 (stereo not shown) | 11.9
27 | CCOC(=O)c1cn2cccnc2n1 | 23.7
28 | COc1ccc(-c2noc(CCC(=O)Nc3cccnc3)n2)cc1OC | -5.98
29 | O=S(=O)(c1ccc2oc3ccc(S(=O)(=O)N4CCCCC4)cc3c2c1)N1CCCCC1 | -1.1
30 | O=C1C(Cc2ccc(O)cc2)NC(=S)N1C1CCCCC1 (stereo not shown) | -3.17
31 | CN1CCN(c2nc3c(c(=O)n(C)c(=O)n3C)n2Cc2ccc(F)cc2)CC1 | -18.7
32 | CNCCc1c[nH]c2ccccc12 | 6.05
33 | Cc1ccc(-n2c(C)cc(/C=N/Nc3ccc([N+](=O)[O-])cn3)c2C)cc1 | -4.67
34 | CCOc1ccc(N(CC(=O)NCC2CCCO2)C(=O)CCC(=O)Nc2ccccn2)cc1 (stereo not shown) | -34.8
35 | COc1ccc(CC[n+]2cc(/N=C(\C)[O-])on2)cc1OC | -3.39
36 | Cn1c(=O)n(CC(N)=O)c2ccccc21 | 0.89
37 | CCn1nnc(-c2ccccc2NC(=O)c2cc(OC)cc(OC)c2)n1 | 20.6
38 | CCOC(=O)N1CCN(C(=O)CCc2c(C)nc3nc(C)nn3c2C)CC1 | -22
39 | Cc1sc2ncnc(NCCN3CCOCC3)c2c1C.O=C(O)C(=O)O | -22.4
40 | CCOC(=O)C1=C(C)S/C(=C\N(C)C)C1=O | 1.38
41 | Cc1ccc(NC(=O)COc2cccc(Oc3ccccc3)c2)cc1S(=O)(=O)N1CCOCC1 | 9
42 | CCN(CC)C(=O)c1cccc(NC(=O)C2=COCCO2)c1 | 6.95
43 | Cc1cccc(C(CC(=O)NCCc2ccccc2)c2ccccc2)c1O (stereo not shown) | -31.6
44 | COc1ccc(CCNC(=O)CC(=O)N/N=C/c2ccc(C(=O)O)cc2)cc1OC | 18.8
45 | Cc1nnc(NC(=O)Cc2ccc(OCc3c(C)noc3C)cc2)s1 | 15.9
46 | COc1ccc(Cl)cc1NS(=O)(=O)c1cc(Br)cnc1N | -8.08

Row | Structure (SMILES) | hERG current change (%, negative = inhibition) at 10uM [%]
47 | CC(C)(C)NC(=O)/C=N/O | 24.4
48 | Cc1cc(C)c(NC(=S)N(CCN2CCCCC2)Cc2ccco2)c(C)c1 | -37.9
49 | O=C1C(=O)N(Cc2ccncc2)C(c2ccccc2F)/C1=C(\O)c1ccc2c(c1)OCCO2 (stereo not shown) | 14.8
50 | CC(C)c1ccc2occ(-c3nn[nH]n3)c(=O)c2c1 | 8.11
51 | Cc1ccc(C(=O)/C=C/NNC(=O)c2ccccc2O)cc1 | -6.15
52 | O=C(Nc1cccc(NC(=O)c2cccs2)c1)c1cccnc1 | -6.06
53 | COc1ccccc1OCc1nnc(SCC(=O)NCc2ccco2)n1-c1ccccc1 | -9.19
54 | C/C=C/c1ccc(OCCCCNCc2ccco2)c(OC)c1.O=C(O)C(=O)O | -72.9
55 | CC(=O)c1c(C)[nH]c(C(=O)OCC(=O)Nc2sc3c(c2C#N)CCC(C)C3)c1C (stereo not shown) | 17.7
56 | CC12CN3CCN(CC(C3)C1(O)CN1CCOCC1)C2 (stereo not shown) | -1.79
57 | CC(Sc1nc2ccccc2[nH]1)C(=O)Nc1ccc2c(c1)OCCO2 (stereo not shown) | 4.29
58 | CCN(C1CCCCC1)S(=O)(=O)c1cc2c3c(c1)CCN3C(=O)CC2 | -24.5
59 | COCCNC(=O)COc1ccc(C)cc1C | 10.4
60 | CC(=O)Nc1cccc(Nc2nc(-c3cccs3)nc3ccccc23)c1 | 13.7
61 | CCOC(=O)c1cc2c(=O)c3ccccc3oc2nc1C | 8.65
62 | CN(C)S(=O)(=O)c1cccc(-c2csc(N/N=C/c3ccco3)n2)c1 | -0.187
63 | CCCOc1ccccc1N/C(N)=N/c1nc(C)cc(C)n1 | -85.8
64 | Cc1ccc(Cl)cc1NC(=O)Cn1nc(-c2cccs2)ccc1=O | 10.5
65 | O=C(COC(=O)CNS(=O)(=O)/C=C/c1ccccc1)NC1CCS(=O)(=O)C1 (stereo not shown) | 17.6
66 | CC1CCC(NC(=O)Cn2ncc3ccccc32)CC1 (stereo not shown) | -2.6
67 | O=C(NC(=S)Nc1ccc(S(=O)(=O)N2CCCCCC2)cc1)c1cccs1 | -5.3
68 | COc1cccc(C(=O)C(C#N)=C(SC)SC)c1 | -12.4
69 | O=C(O/N=C1\CCCc2ccccc21)c1ccc(F)cc1 | -2.99

Row | Structure (SMILES) | hERG current change (%, negative = inhibition) at 10uM [%]
70 | Cc1cccc(NC(=S)N(C)Cc2cn(C)c3ccccc23)c1 | -7.49
71 | Cc1cc(C(=O)CCl)c(C)n1-c1cccc([N+](=O)[O-])c1 | 11.9
72 | O=C(Nc1ccc(Oc2ccccc2)cc1)C1CCN(c2c3c(nc4ncnn24)CCC3)CC1 | -55.6
73 | COc1cccc(C(=O)NC(Cc2ccccc2)c2ccc3c(c2)OCCCO3)c1 (stereo not shown) | 3.13
74 | CC1CCN(CC(=O)Nc2nccs2)CC1 | 13.6
75 | O=S(=O)(Nc1ncccc1O)c1ccc(Cl)cc1 | -15.2
76 | O=C(O)CSc1nnc(-c2ccc(Cl)cc2Cl)n1Cc1ccccc1 | 21.7
77 | O=c1ccc(=O)n2n1CC(O)C2 | -13.1
78 | CCOCCCNC(=O)c1cn(C)c(=O)c2cc(OC)c(OC)cc12 | 4.88
79 | CCCSC1=N/C(=C\c2ccsc2)C(=O)S1 | 5.62
80 | Cc1cccc(CC(=O)Nc2c3c(nn2-c2cccc(Cl)c2)CS(=O)C3)c1 (stereo not shown) | 6.32
81 | COc1ccc(OC)c(-c2csc(NC(=O)CSc3ccccc3)n2)c1 | -6.44
82 | COc1ccc(S(=O)(=O)NCCN2CCOCC2)c(C)c1C | 0.476
83 | COCCn1c(N)c(S(=O)(=O)c2cccs2)c2nc3ccccc3nc21 | -23.1
84 | O=C(O)[C@H](O)[C@@H](O)C(=O)O | 6.59
85 | CCOC(=O)C1=C(C)OC(N)=C(C#N)C1c1cccs1 (stereo not shown) | 8.62
86 | Cc1cc(Cl)ccc1NC(=O)COC(=O)c1nc2nccc(C)n2n1 | -10.2
87 | CCOC(=O)C1CCN(C(=O)c2ccc3c(c2)C(=O)N(c2ccccc2C)C3=O)CC1 | -4.68
88 | Cc1cc(C)c2c(N)c(S(=O)c3ccc(C(C)(C)C)cc3)sc2n1 (stereo not shown) | 2.49
89 | CC(/C=N/n1c(-c2ccccc2)n[nH]c1=S)=C\c1ccco1 | 16.1
90 | CCOc1ccc(NC(=O)CSc2nc3nc4c(cc3c(=O)n2CC)COC(C)(C)C4)cc1 | 0.831
91 | Cn1nc(C(C)(C)C)c([N+](=O)[O-])c1C(=O)N1CCOCC1 | 17.3
